Laboratory results published in the supplement of paper PMC10126150.
Values marked as one replicate rest on one cluster of the flow cell; about a third of the high ones do not repeat.
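Also: ATP exposure 15 min at 22 °C before imaging.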

The sequences below were run on ATP (assay: switch fluorescence ratio, 500 uM ATP over buffer (Cy3 cluster intensity, sum of 5 cycles each) (fold (ratio)); higher = stronger signal-on switching upon ATP binding; sequences stand for … in TCGTCGGCAGCGTCAGATGTGTATAAGAGACAGTTTTTTTTTTTTTTTTTTTTTTTTT…TC). Conditions: aptamer strand: ATP DNA aptamer (quencher-CACCTGGGGGAGTATTGCGGAGGAAGG + anchor), 100 nM annealed; ATP concentration: 500 uM; one replicate.
Method in brief: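 Cy3-labelled switching-strand clusters on a modified Illumina MiSeq flow-cell were annealed to 100 nM quencher-labelled ATP aptamer, imaged in selection buffer, then imaged after 15 min with 500 uM ATP at 22 °C. Five buffer/ATP cycles ran, with NaOH stripping and re-annealing between them. The fluorescence ratio is summed target-cycle over summed buffer-cycle Cy3 intensity per cluster, averaged per switch-domain sequence. Clusters outside 100-1000 RFU were excluded.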
CTCTTGAAAG was tested, and the switch fluorescence ratio was 1.01.
CTCTTGCGAC was tested, and the switch fluorescence ratio was 2.05.
For CTCTTGTGTA, the switch fluorescence ratio was 1.04.
CTCTTTAATC was tested, and the switch fluorescence ratio was 1.02.
Sequence CTCTTTCATC has a switch fluorescence ratio of 1.
CTCTTTTGGA showed a switch fluorescence ratio of 1.02.
CTGAACAGTC was tested, and the switch fluorescence ratio was 1.04.
Sequence CTGAACGGTG has a switch fluorescence ratio of 1.09.
For CTGAATTTAA, the switch fluorescence ratio was 0.959.
CTGACAACAT was tested, and the switch fluorescence ratio was 1.23.
For CTGACAAGGG, the switch fluorescence ratio was 1.01.
Work on CTGACGGATG yielded a switch fluorescence ratio of 1.02.
In the case of CTGACTCAGT, the switch fluorescence ratio is reported as 1.19.
Sequence CTGACTCGG has a switch fluorescence ratio of 1.07.
CTGACTTCAA showed a switch fluorescence ratio of 1.9.
Work on CTGAGAATTG yielded a switch fluorescence ratio of 1.
CTGAGAGGCC showed a switch fluorescence ratio of 1.05.
Work on CTGAGATCGA yielded a switch fluorescence ratio of 1.02.
CTGAGCATCG gave a switch fluorescence ratio of 1.03.
For CTGAGCCCCC, the switch fluorescence ratio was 1.26.
CTGAGCCTCA gave a switch fluorescence ratio of 1.
For CTGAGCTTCT, the switch fluorescence ratio was 1.13.
CTGAGGAGAT was tested, and the switch fluorescence ratio was 1.03.
In the case of CTGAGGTTAA, the switch fluorescence ratio is reported as 1.04.
With CTGAGTAACA the switch fluorescence ratio was 1.03.
With CTGAGTTGGT the switch fluorescence ratio was 0.972.
CTGATATTGC gave a switch fluorescence ratio of 1.06.
CTGATCACCG gave a switch fluorescence ratio of 1.01.
CTGATCGCTG gave a switch fluorescence ratio of 1.49.
Work on CTGATCTCGT yielded a switch fluorescence ratio of 0.975.
CTGATCTGCT gave a switch fluorescence ratio of 1.01.
CTGATGATG gave a switch fluorescence ratio of 1.04.
CTGATGATGC gave a switch fluorescence ratio of 1.29.
CTGATTAACG was tested, and the switch fluorescence ratio was 0.995.
Sequence CTGCAACTAT has a switch fluorescence ratio of 2.47.
In the case of CTGCACACAC, the switch fluorescence ratio is reported as 2.89.
In the case of CTGCACGTAT, the switch fluorescence ratio is reported as 1.07.
CTGCATCAAT showed a switch fluorescence ratio of 1.24.
CTGCATGCAT was tested, and the switch fluorescence ratio was 1.07.
CTGCCATAGA was tested, and the switch fluorescence ratio was 1.04.
In the case of CTGCCGCGGT, the switch fluorescence ratio is reported as 1.54.
Sequence CTGCCGGAGC has a switch fluorescence ratio of 2.43.
For CTGCCTTAAT, the switch fluorescence ratio was 1.02.
CTGCGGATCA gave a switch fluorescence ratio of 1.01.
In the case of CTGCGGATCG, the switch fluorescence ratio is reported as 0.98.
For CTGCGGCCAA, the switch fluorescence ratio was 1.15.
Sequence CTGCGTCGCG has a switch fluorescence ratio of 1.02.
CTGCTGAAGA gave a switch fluorescence ratio of 1.05.
For CTGCTTAAGC, the switch fluorescence ratio was 0.967.
CTGCTTGAGA was tested, and the switch fluorescence ratio was 1.01.
CTGCTTTGAA was tested, and the switch fluorescence ratio was 1.03.
Work on CTGGAAAGCC yielded a switch fluorescence ratio of 0.983.
CTGGACCTAT was tested, and the switch fluorescence ratio was 1.
Sequence CTGGACGGGA has a switch fluorescence ratio of 1.01.
For CTGGAGACCG, the switch fluorescence ratio was 1.
In the case of CTGGAGGCTG, the switch fluorescence ratio is reported as 1.09.
CTGGCACGAA was tested, and the switch fluorescence ratio was 0.995.
CTGGCCTAGC was tested, and the switch fluorescence ratio was 0.991.
CTGGCTTGCA gave a switch fluorescence ratio of 1.04.
CTGGGAACGT gave a switch fluorescence ratio of 1.02.
For CTGGGATAAT, the switch fluorescence ratio was 1.01.
With CTGGGCAATT the switch fluorescence ratio was 2.56.
CTGGGCATTA was tested, and the switch fluorescence ratio was 1.16.
CTGGGCGATT gave a switch fluorescence ratio of 1.
CTGGGCGGAC was tested, and the switch fluorescence ratio was 1.26.
CTGGGTCTAG gave a switch fluorescence ratio of 1.03.
With CTGGGTTCGC the switch fluorescence ratio was 0.996.
CTGGGTTCTT gave a switch fluorescence ratio of 1.02.
CTGGTCACGG was tested, and the switch fluorescence ratio was 0.991.
With CTGGTCAGTT the switch fluorescence ratio was 0.965.
Work on CTGGTTAATA yielded a switch fluorescence ratio of 1.
With CTGGTTTTTG the switch fluorescence ratio was 0.993.
With CTGTAAAGAA the switch fluorescence ratio was 0.957.
CTGTAAATAG showed a switch fluorescence ratio of 1.18.
CTGTAAATT was tested, and the switch fluorescence ratio was 0.984.
Sequence CTGTAACGGG has a switch fluorescence ratio of 1.04.
CTGTACTTGC was tested, and the switch fluorescence ratio was 1.05.
With CTGTATTAAG the switch fluorescence ratio was 1.03.
CTGTATTGCT showed a switch fluorescence ratio of 1.02.
With CTGTCAATAT the switch fluorescence ratio was 1.58.
CTGTCATTTT gave a switch fluorescence ratio of 1.03.
CTGTCCATTC showed a switch fluorescence ratio of 1.04.
With CTGTCGCTTG the switch fluorescence ratio was 0.994.
Work on CTGTCTAATA yielded a switch fluorescence ratio of 1.02.
For CTGTCTCTAT, the switch fluorescence ratio was 1.04.
With CTGTCTGCTC the switch fluorescence ratio was 1.05.
In the case of CTGTCTTGGT, the switch fluorescence ratio is reported as 0.99.
Work on CTGTGACCTC yielded a switch fluorescence ratio of 1.06.
CTGTGACGCC was tested, and the switch fluorescence ratio was 1.05.
In the case of CTGTGATTAG, the switch fluorescence ratio is reported as 1.03.
In the case of CTGTGCAGC, the switch fluorescence ratio is reported as 1.13.
CTGTGCATAA gave a switch fluorescence ratio of 1.95.
CTGTGCCCAC gave a switch fluorescence ratio of 1.03.
CTGTGCCCAT showed a switch fluorescence ratio of 1.
CTGTGCTAAG was tested, and the switch fluorescence ratio was 0.949.
With CTGTGGCACA the switch fluorescence ratio was 0.999.
Sequence CTGTGGTAAC has a switch fluorescence ratio of 0.957.
CTGTGGTTTC was tested, and the switch fluorescence ratio was 1.01.
Sequence CTGTGTCAAT has a switch fluorescence ratio of 1.26.
Sequence CTGTGTTTTG has a switch fluorescence ratio of 0.989.
For CTGTTATGCT, the switch fluorescence ratio was 1.
CTGTTCCCGG was tested, and the switch fluorescence ratio was 1.09.
Sequence CTGTTGCCGC has a switch fluorescence ratio of 1.13.
CTGTTGCTAA was tested, and the switch fluorescence ratio was 1.05.
Work on CTGTTGGTTC yielded a switch fluorescence ratio of 1.01.
With CTGTTGTCAC the switch fluorescence ratio was 0.996.
CTGTTGTGAG gave a switch fluorescence ratio of 0.983.
Sequence CTGTTTCGTT has a switch fluorescence ratio of 1.
Work on CTGTTTGC yielded a switch fluorescence ratio of 0.964.
For CTGTTTGTTC, the switch fluorescence ratio was 0.967.
CTTAAAGCGC gave a switch fluorescence ratio of 0.944.
Work on CTTAACCAGA yielded a switch fluorescence ratio of 0.972.
Work on CTTAACCCCC yielded a switch fluorescence ratio of 1.57.
In the case of CTTAACTGTC, the switch fluorescence ratio is reported as 1.02.
CTTAACTTTT showed a switch fluorescence ratio of 1.06.
CTTAAGGCAC showed a switch fluorescence ratio of 0.988.
Work on CTTAATGATC yielded a switch fluorescence ratio of 0.982.
In the case of CTTACCAGAT, the switch fluorescence ratio is reported as 1.02.
CTTACCCGGC was tested, and the switch fluorescence ratio was 1.11.
Work on CTTACGGTTC yielded a switch fluorescence ratio of 1.03.
For CTTACGTAAC, the switch fluorescence ratio was 1.51.
CTTACTAGGA was tested, and the switch fluorescence ratio was 0.999.
CTTACTGTA was tested, and the switch fluorescence ratio was 1.15.
With CTTACTTATT the switch fluorescence ratio was 0.991.
CTTACTTTTC gave a switch fluorescence ratio of 1.02.
In the case of CTTAGAAGC, the switch fluorescence ratio is reported as 0.966.
Sequence CTTAGACTTT has a switch fluorescence ratio of 0.996.
For CTTAGAGAAA, the switch fluorescence ratio was 0.983.
For CTTAGAGATG, the switch fluorescence ratio was 0.993.
CTTAGCATGA gave a switch fluorescence ratio of 1.03.
CTTAGCATTT showed a switch fluorescence ratio of 1.14.
CTTAGCCAG gave a switch fluorescence ratio of 1.03.
Work on CTTAGCGCGC yielded a switch fluorescence ratio of 1.03.
With CTTAGCTGGG the switch fluorescence ratio was 1.05.
CTTAGCTTTT showed a switch fluorescence ratio of 1.07.
With CTTAGGCTAG the switch fluorescence ratio was 1.
Sequence CTTAGTTGTC has a switch fluorescence ratio of 0.985.
With CTTAGTTTAG the switch fluorescence ratio was 0.949.
For CTTATATGTG, the switch fluorescence ratio was 0.968.
CTTATATTG was tested, and the switch fluorescence ratio was 1.06.
CTTATCTAAC was tested, and the switch fluorescence ratio was 1.06.
CTTATCTAGT showed a switch fluorescence ratio of 1.01.
CTTATGACGA gave a switch fluorescence ratio of 1.01.
CTTATGAGGC showed a switch fluorescence ratio of 1.03.
In the case of CTTATGCTCA, the switch fluorescence ratio is reported as 0.996.
In the case of CTTATGGGTT, the switch fluorescence ratio is reported as 1.01.
CTTATTATAC showed a switch fluorescence ratio of 1.71.
CTTATTCAGC was tested, and the switch fluorescence ratio was 0.973.
Work on CTTATTGCGC yielded a switch fluorescence ratio of 1.09.
CTTATTGTAC gave a switch fluorescence ratio of 1.07.
For CTTATTGTTA, the switch fluorescence ratio was 1.03.
CTTCAAAGCG was tested, and the switch fluorescence ratio was 1.09.
In the case of CTTCAAATGT, the switch fluorescence ratio is reported as 0.958.
CTTCAAGGTG showed a switch fluorescence ratio of 2.15.
Sequence CTTCAATAGT has a switch fluorescence ratio of 1.07.
In the case of CTTCACACC, the switch fluorescence ratio is reported as 1.17.
CTTCACCTC showed a switch fluorescence ratio of 1.37.
With CTTCACTTTT the switch fluorescence ratio was 0.99.
Sequence CTTCAGTGCT has a switch fluorescence ratio of 0.995.
CTTCATTATT gave a switch fluorescence ratio of 0.947.
Sequence CTTCCAGGTT has a switch fluorescence ratio of 1.27.
CTTCCTTCCG showed a switch fluorescence ratio of 1.59.
CTTCCTTTA showed a switch fluorescence ratio of 1.05.
For CTTCGCCAGG, the switch fluorescence ratio was 4.
CTTCGGATCA showed a switch fluorescence ratio of 0.994.
CTTCGGGAAT showed a switch fluorescence ratio of 1.25.
CTTCGGTATT was tested, and the switch fluorescence ratio was 1.01.
CTTCGTGCTA was tested, and the switch fluorescence ratio was 1.08.
For CTTCTACTTA, the switch fluorescence ratio was 1.01.
Work on CTTCTATTT yielded a switch fluorescence ratio of 0.972.
For CTTCTGACCT, the switch fluorescence ratio was 1.39.
CTTCTGGGAA showed a switch fluorescence ratio of 1.03.
CTTCTTCGGG showed a switch fluorescence ratio of 1.05.
In the case of CTTGAATAGC, the switch fluorescence ratio is reported as 1.
With CTTGACAGGA the switch fluorescence ratio was 0.964.
For CTTGAGGAAG, the switch fluorescence ratio was 1.01.
CTTGAGTACG gave a switch fluorescence ratio of 1.03.
Sequence CTTGATATAC has a switch fluorescence ratio of 1.52.
CTTGATCTAG showed a switch fluorescence ratio of 1.
CTTGATGAAG gave a switch fluorescence ratio of 0.986.
With CTTGATTAAC the switch fluorescence ratio was 1.08.
Work on CTTGCACGTC yielded a switch fluorescence ratio of 1.06.
CTTGCGGTGT was tested, and the switch fluorescence ratio was 1.02.
In the case of CTTGCTAGTC, the switch fluorescence ratio is reported as 1.01.
In the case of CTTGGACAGC, the switch fluorescence ratio is reported as 1.1.
For CTTGGATTAC, the switch fluorescence ratio was 1.27.
CTTGGCAGAG was tested, and the switch fluorescence ratio was 1.
Work on CTTGGCCAAG yielded a switch fluorescence ratio of 0.941.
With CTTGGCCAAT the switch fluorescence ratio was 1.02.
Work on CTTGGCTCTA yielded a switch fluorescence ratio of 0.969.
In the case of CTTGGCTGCG, the switch fluorescence ratio is reported as 1.03.
CTTGGCTTCG gave a switch fluorescence ratio of 1.03.
CTTGGGGCAA was tested, and the switch fluorescence ratio was 1.46.
Sequence CTTGGTAAAT has a switch fluorescence ratio of 1.01.
Sequence CTTGGTAGGC has a switch fluorescence ratio of 1.02.
For CTTGGTATCG, the switch fluorescence ratio was 0.97.
CTTGGTGGGC was tested, and the switch fluorescence ratio was 1.03.
For CTTGGTTGAA, the switch fluorescence ratio was 1.03.
CTTGGTTGTA was tested, and the switch fluorescence ratio was 0.989.
CTTGTAAAGA gave a switch fluorescence ratio of 0.995.
